IFI data for 90 molecules are collected here from ChEMBL document CHEMBL1157539, “Thousands of chemical starting points for antimalarial lead identification” (Nature, 2010).

Molecules are shown by their SMILES. In all, about 13,000 compounds were measured (“IFI”: median about 4, highest 2% from about 17 on). The list shows a part of the results.

This test in a line: GSK_TCMDC: Inhibition Frequency Index (IFI). The number of non-kinase HTS assays where a compound showed > 50 % inhibition, expressed as a percentage of the number of such assays in which the compound was tested (-0 is zero). Type of test: functional.
The molecule `COc1cc(CNCCCNc2nc(=O)c3sccc3[nH]2)c2[nH]cc(Cl)c2c1` showed an IFI of 5.88%. In turn, `COc1ccc2nccc([C@@H](O)CN3CCC(NCc4cc5c(cc4F)SCC(=O)N5)CC3)c2n1` registered an IFI of 3.1%. In the case of `COc1ccc2c(=NN=Cc3ccc(OC)c4ccccc34)cc(C)[nH]c2c1`, the IFI came to 2.14%. On to `Cc1cccc2nc(-c3ccc(-c4ccc(NC(=O)C(C)CN5CCN(C)CC5)cc4)s3)[nH]c12` (stereo not given), for which the IFI came out at 1.89%. For `Oc1c(C(Nc2ccccn2)c2ccco2)cc(Cl)c2cccnc12` (stereo not given), the IFI is 22.6%.

In turn, `CCc1c[nH]c2c(N3CCCC3=O)cc(C(=O)N[C@@H](Cc3ccccc3)[C@H](O)CNC3CCCCC3)cc12` showed an IFI of 2.19%. Next, `O=S(=O)(c1c(Cl)cc(Cl)cc1Cl)N1CCCCC(c2ccc(C(F)(F)F)cc2)=N1`: 1.5%; `O=C(Nc1nc2cc(S(=O)(=O)NCc3ccc(Cl)c(Cl)c3)ccc2n1CCCN1CCCC1)c1ccc(Cl)cc1`: 8.05%; `O=C(Nc1cccnc1)c1cc(-c2cccnc2)nc2ccc(Cl)cc12`: 0%. On to `CC(C)(C(=O)Nc1ccc(N2CCC3(CCCN(CC4CC4)C3)CC2)c(Cl)c1)c1cccc(C(F)(F)F)c1`, for which the IFI worked out at 6.67%. Next, `COc1ccc2nccc(N3CCN(CCNCc4ccc5c(n4)NC(=O)CO5)CC3)c2n1`: 0.72%. For `CCNc1cc(C)nc(Nc2ccc(NC(=O)c3c(F)cccc3Cl)cc2)n1`, the IFI stood at 18.2%. The molecule `O=C(C=Cc1ccc(Cl)c(Cl)c1)NCCCCCN1CCC(CCCNS(=O)(=O)c2ccc(F)cc2)CC1` had an IFI of 8.63%.

Molecule `Cc1nc2ccc([N+](=O)[O-])cc2c(=O)n1OCc1ccccc1` came in with an IFI of 1.43%. `NCC1CCCN1Cc1ccc(-c2cccc(-c3nc4cc(C(F)(F)F)ccc4[nH]3)c2)cc1` (stereo not given) yielded an IFI of 12.8%. As for `O=c1cc(NCCCNCc2ccc(C(F)(F)F)cc2F)[nH]c2ccccc12`, the IFI came to 3.62%. As for `Nc1nc2c(ncn2COC(COCc2ccccc2)COCc2ccccc2)c(=O)[nH]1.Nc1nc2ncn(COC(COCc3ccccc3)COCc3ccccc3)c2c(=O)[nH]1`, the figure is -0%. The molecule `Cc1cccc2nc(-c3cccc(-c4ccc(NC(=O)C5CCN(C)CC5)cc4)c3)[nH]c12` came in with an IFI of 3.51%. Next, `CCCNc1nc(Nc2ccccc2C)nc2ccccc12`: 7.04%; `CN(C)CCN(C)C(=O)c1cc(-c2ccncc2)c(-c2ccc(Cl)c(O)c2)o1`: -0%; `Oc1ccccc1CCNC1CCc2ccccc2C1` (stereo not given): -0%. Next, `CC(c1cccc(Nc2nccc(-c3c(-c4cccc(NC(=O)c5c(F)cccc5F)c4)nn4ccccc34)n2)c1)S(C)(=O)=O` (stereo not given): 6.31%; `CC(c1cccc(S(=O)(=O)NCc2cccc(C(F)(F)F)c2)c1)N1CCC(N2CCCCC2)CC1` (stereo not given): 7.14%. As for `COc1cc(CN/C(=N/c2ccc(-c3ccccc3)cc2)Nc2ccc(C#N)cc2O)cc(OC)c1`, the figure is 1.46%. `CCCCCCCC1CC(CC(=O)Nc2ccnc3ccc(OC)cc23)CN1C(=O)OC(C)(C)C` (stereo not given) came in with an IFI of 7.21%.

Regarding `O=C(/C=C/c1ccc(Cl)c(Cl)c1)NCCCCCN1CCCC(c2c[nH]c3ccccc23)C1` (stereo not given), the IFI was 5.8%. Next, `COc1ccc2c(NN=Cc3cccnc3)ccnc2c1`: -0%; `CC1CCCC(Nc2noc(-c3sccc3Br)n2)C1` (stereo not given): 7.69%; `CCN(CC(C)O)C(=O)c1ccc(-c2cccc(-c3nc4cccc(C)c4[nH]3)c2)cc1` (stereo not given): 2.88%. `COc1cc(Cc2cnc(N)nc2N)cc(OCCCCc2ccc([N+](=O)[O-])cc2)c1OC`: the IFI amounted to 2.92%. In the case of `Cc1ccccc1CCNC(=O)c1cnc(N2CCN(c3ccncc3)CC2)c(Cl)c1`, the IFI worked out at 20.8%.

Molecule `CCCN(Cc1ccc(OCC)cc1)Cc1cc(=O)c2cc(Cl)ccc2[nH]1` came in with an IFI of 10.6%.

As to `COc1ccc(NC(=O)[C@H](Cc2ccccc2)Nc2cc(C)nc(NCCc3cccs3)n2)cc1`, the IFI is 9.52%. `Cc1cccc(OCCCCON2C(=N)N=C(N)NC2(C)C)c1C` registered an IFI of 3.68%. Next, `COc1ccc(Cl)cc1N1CCN(CCCNC(=O)c2ccc(-c3nc4cc(Cl)c(Cl)cc4[nH]3)c(C)c2)CC1`: 0.74%. `COc1ccc(Nc2nc(N)c3cc(OC)c(OC)cc3n2)cc1OC`: the IFI is -0%.

For `CCC[C@@H]1CCN[C@H]([C@H](O)c2ccnc3ccc(OC)cc23)C1`, the IFI is 0.81%. As for `CC(O)CNc1nc2ccccc2n1CC(=O)Nc1cccc(C(=O)Nc2cccc(C(F)(F)F)c2)c1` (stereo not given), the IFI is 0.93%. Regarding `Cc1ccc2[nH]c(-c3ccccc3N)cc2c1`, the IFI was found to be 4.79%. As for `Cc1cccc2nc(-c3ccc(-c4cccc(NC(=O)c5cnccc5C(F)(F)F)c4)cc3)[nH]c12`, the figure is 8.11%. As for `Oc1c(C(Nc2nc3ccccc3s2)c2ccc(OC(F)F)cc2)ccc2cccnc12` (stereo not given), the figure is 9.4%. Next, `Cc1cccc(Nc2nc3nonc3nc2Nc2cccc(Cl)c2Cl)c1C`: 16.4%. `FC(F)(F)c1ccc(N2CCCN(Cc3cccc(-c4ccccc4CNCc4ccc5c(c4)OCO5)c3)CC2)nc1` showed an IFI of 11.7%. Molecule `Nc1c2c(nc3ccc(NC(=O)CCCCCCc4ccccc4)cc13)CCCC2` registered an IFI of 15.8%. Next, `O=C(Nc1cccc(CN2CCCN(CCc3ccccc3)CC2)c1)c1ccc(Cl)c(Cl)c1`: 3.36%; `O=C(NCc1cccc(C(F)(F)F)c1)[C@@H]1CCCN1C(=O)c1ccc(O)c(-c2ccc(Cl)c(Cl)c2)c1`: 5.19%. Next, `CCNc1cc(C)nc(Nc2ccc(F)cc2)n1`: 4.35%; `Cc1ccc(O)cc1Nc1ccnc2cc(-c3csc(CN(C)CCN(C)C)n3)ccc12`: 4.96%; `O=C(c1cc(-c2ccco2)n[nH]1)N1CCN(S(=O)(=O)c2ccc(Br)cc2)CC1`: 0%. For the molecule `COc1cc(C(C)C)nc2ccc(NC(=O)c3ccc(C(=O)Nc4ccc5nc(C(C)C)cc(OC)c5c4)cc3)cc12`, the IFI worked out at 3.03%.

`CC(=O)N(C)C1CCN(Cc2ccc(-c3ccc(-c4nc5cc(F)ccc5[nH]4)s3)cc2)C1` (stereo not given): the IFI amounted to 8.33%. Next, `COc1cccc(-c2csc(C(=O)NCC3CCN(Cc4ccc(C(C)(C)C)cc4)C3)c2)c1` (stereo not given): 12.2%; `CC(=O)Oc1c(C2C=CCCC2)c(OC(C)=O)c2ccccc2c1OC(C)=O` (stereo not given): 4%.

As for `O=S1(=O)C=C(c2ccccc2)CC1`, the IFI was 2.21%. With `COc1cccc(NC(=O)c2cc(Br)cc(N3CCN(c4ccncc4)CC3)c2)c1`, the IFI amounted to 12.5%. As for `O=C(/C=C/c1ccc(Cl)cc1)NCCCCCN1CCC(C(=O)Nc2ccc(Cl)cc2)CC1`, the figure is 10.6%; as for `CCOc1ccc2[nH]c(C)cc(=NN=Cc3ccc(Cl)cc3)c2c1`, 2.29%; as for `N[C@@H](Cc1cc(I)c(Oc2ccc(O)c(Cl)c2)c(I)c1)C(=O)O`, 2.26%. As for `O=C(NCCCCN1CCC(c2ccc3c(c2OCc2ccccn2)CCCC3)CC1)c1ccc(NC(=O)c2ccc(Cl)cc2)cc1`, the IFI amounted to 9.73%. Turning to `CCCCC(CC)CN1C(=O)C(c2ccccc2)(c2ccccc2)N=C1N` (stereo not given), the IFI was found to be 16.3%. Turning to `c1cc(CNCCN2CCNCC2)cc(-c2ccc(-c3nc4ccccc4[nH]3)cc2)c1`, the IFI was 3.92%.

`CCN(CC)CCN(Cc1ccc(-c2ccc(C(F)(F)F)cc2)cc1)C(=O)Cn1cc(Cc2cnn(C)c2)c(=O)n2nc(-c3ccccc3)cc12` registered an IFI of 6.57%. Next, `CN1CCC(NCc2ccc(-c3cnc(NCc4ccccc4)nc3)cc2)CC1`: 8.45%; `COc1ccc2[nH]ccc(=NN=Cc3cccnc3)c2c1`: 0.72%. As for `O=C(NCCc1cccc(F)c1)c1cc(Br)cc(N2CCN(c3ccncc3)CC2)c1`, the figure is 8.33%. Next, `CCCc1ccc(NC(=O)c2ccc(CN3CCCN(Cc4ccc(OC)cc4)CC3)cc2)cc1`: 14.4%. Regarding `COc1ccc2nc(-c3ccccc3)cc(N/N=C/c3ccc([N+](=O)[O-])cc3)c2c1`, the IFI is 5.93%.

With `Cc1ccnc(Nc2nc(-c3ccccn3)cs2)c1`, the IFI worked out at 7.97%.

With `CN1CCN(Cc2cccc(-c3ccc4c(Nc5ccc(Oc6cccnc6)cc5)ccnc4c3)c2)CC1`, the IFI turned out to be 6.02%. Next, `O=C(Nc1ccc(Cl)c(Cl)c1)Nc1ccccc1N1CCNCC1`: 15%; `CN1CCC(N(Cc2ccc(N3CCN(Cc4c[nH]c5ccc(Cl)cc45)CC3)nc2)C2CC2)CC1`: 6.45%. Next, `Clc1cc(Br)ccc1-c1ccc(CNCC2CCNCC2)o1`: 26.3%.

On to `CCOC(=O)c1ccc(NC(=O)Nc2ccc(-c3ccc(-c4nc5ccccc5[nH]4)cc3)cc2)cc1`, for which the IFI came out at 2%. Next, `COc1cc2c(cc1N1CCN(C)CC1)N(C(=O)Nc1ccc(-c3ccncc3)c(Cl)c1Cl)CC2`: 3.62%. `CCCCCN1CCCC(NS(=O)(=O)c2cccc(C(=O)Nc3cccc(C(F)(F)F)c3)c2)C1` (stereo not given) yielded an IFI of 6.12%. Next, `CCOC(=O)c1ccc(OCc2ccc(-c3ccccc3)cc2)cc1`: 0%; `Nc1cccc(CNCc2ccc(-c3ccc(-c4nc5cc(C(F)(F)F)ccc5[nH]4)s3)cc2)c1`: 16.5%; `CCCCC(CC)C(=O)C(NC(=O)[C@H](CSC(c1ccccc1)(c1ccccc1)c1ccccc1)NC(=O)OC(C)(C)C)C(=O)OC` (stereo not given in full): 0.92%. As for `N=C(N)c1cc(Cl)cc(NC(=O)Nc2cc(Cl)cc(C(=N)N)c2)c1`, the figure is 2.16%; as for `CN1CCC(C(=O)Nc2cccc(-c3ccc(-c4nc5cc(C(F)(F)F)ccc5[nH]4)s3)c2)CC1`, 8.7%; as for `OCc1c(Cl)cc(Cl)cc1CNCCCNc1nc2ccccc2[nH]1`, 2.19%.

For `NS(=O)(=O)Cc1cccc(-c2ccnc3ccc(-c4cccc(S(N)(=O)=O)c4)cc23)c1`, the IFI was -0%. On to `COc1cc2nc(N3CCC(CNC(=O)c4ccc(-c5ccc(C(F)(F)F)cc5)cc4)CC3)nc(N)c2cc1OC`, for which the IFI was 8.41%.

`CCNc1cc(C(=O)N[C@@H](Cc2ccccc2)[C@H](O)CNC2CCCC2)cc(N2CCCC2=O)c1` registered an IFI of -0%.

As to `CN1CCC(Oc2ccc(NC(=O)c3ccc4c(=O)n(Cc5ccccc5)cnc4c3)cc2Cl)CC1`, the IFI amounted to 6.8%. As for `O=C(Nc1ccc2nc3n(c(=O)c2c1)CCCCC3)C(=O)N1CCC(Cc2ccccc2)CC1`, the figure is -0%; as for `COc1cc2nc(Nc3ccc4c(ccn4Cc4ccccc4)c3)nc(Nc3ccc4c(ccn4Cc4ccccc4)c3)c2cc1OC`, 4.41%. As for `COc1ccccc1C(C)NCC(=O)Nc1cc(C(F)(F)F)ccc1Cl` (stereo not given), the figure is 2.27%; as for `NC(=O)c1sc(-n2cnc3ccccc32)cc1OCc1ccccc1[N+](=O)[O-]`, 3.1%. As for `CCOc1c(Br)cc(Br)cc1CNCCCCNc1nc2ccccc2[nH]1`, the figure is 7.25%.
